Where “and” joins values, the source holds several entries; their conditions need not be identical. Equal values may be shown once. At least one structure is not confirmed: it was looked up by name or label, or the drawing left a doubt.
Tested on: Spike RBD coated magnetic beads / RAW 264.7 macrophages
Test: Antibody-dependent cellular phagocytosis (ADCP), RAW 264.7 macrophages and Spike RBD coated magnetic beads, flow cytometry
Type: cell-based
Conditions: 37° C., 2 hours, read-out: SARS-COV-2 ADCP EC50
Description: The ability of the compounds to mediate antibody-dependent cellular phagocytosis (ADCP) was assessed using RAW 264.7 macrophages and Spike RBD coated magnetic beads (https://www.acrobiosystems.com/P3194-SARS-CoV-2-Spike-RBD-coupled-Magnetic-Beads.html). Spike RBD coated magnetic beads (3 ul per well) were added to each well of a round bottom 96-well plates. RAW264.7 cells (50,000 cells per well) were added to the beads. Next, the compounds were administered to predetermined final concentrations. The cell-bead mixtures were incubated at 37° C. for 2 hours. The mixtures were then analyzed by flow cytometry.

## CC[C@H](C)[C@H](NC(=O)[C@H](CC(C)C)NC(=O)[C@H](CC(=O)O)NC(=O)[C@H](CO)NC(=O)[C@@H](NC(=O)[C@H](CCCNC(=N)N)NC(=O)[C@H](CCSC)NC(=O)[C@H](CO)NC(=O)[C@H](C)NC(=O)[C@H](CCC(=O)O)NC(=O)[C@H](C)NC(=O)[C@H](Cc1c[nH]cn1)NC(=O)CNC(=O)[C@H](CC(C)C)NC(=O)[C@H](CCC(=O)O)NC(=O)[C@H](CC(=O)O)NC(=O)[C@H](CC(C)C)NC(=O)[C@H](CC(C)C)NC(=O)[C@H](CCCNC(=N)N)NC(=O)[C@H](CCSC)NC(=O)[C@@H](NC(=O)[C@H](CCC(=O)O)NC(=O)[C@H](Cc1ccc(O)cc1)NC(=O)[C@@H](NC(=O)[C@H](CCCCN)NC(=O)[C@H](CCC(N)=O)NC(=O)[C@H](CC(C)C)NC(=O)[C@@H](NC(=O)[C@H](Cc1c[nH]c2ccccc12)NC(=O)[C@H](CCC(=O)O)NC(=O)[C@H](CCCCN)NC(=O)[C@H](CC(=O)O)NC(C)=O)[C@@H](C)CC)[C@@H](C)CC)[C@@H](C)CC)C(C)C)C(=O)N[C@@H](Cc1ccc(O)cc1)C(=O)N[C@@H](CCC(=O)O)C(=O)N[C@@H](Cc1ccccc1)C(=O)N[C@@H](CCSC)C(=O)N[C@@H](CCCCN)C(=O)N[C@@H](CCCCN)C(=O)NCC(=O)N[C@@H](CC(=O)O)C(=O)N[C@H]1CSSC[C@@H](C(=O)N[C@H](C(=O)O)[C@@H](C)O)NC(=O)[C@H](Cc2c[nH]c3ccccc23)NC(=O)[C@H](C(C)C)NC(=O)[C@H](CC(C)C)NC(=O)[C@H](CCC(=O)O)NC(=O)CNC(=O)[C@H](CC(C)C)NC(=O)[C@H](Cc2c[nH]cn2)NC(=O)[C@H](Cc2c[nH]c3ccccc23)NC(=O)[C@H](C)NC1=O [Compound 112]
  EC50: 2 nM and 1.7 nM

## CC[C@H](C)[C@H](NC(=O)[C@H](CC(C)C)NC(=O)[C@H](CC(=O)O)NC(=O)[C@H](CO)NC(=O)[C@@H](NC(=O)[C@H](CCCNC(=N)N)NC(=O)[C@H](CCSC)NC(=O)[C@H](CO)NC(=O)[C@H](C)NC(=O)[C@H](CCC(=O)O)NC(=O)[C@H](C)NC(=O)[C@H](Cc1c[nH]cn1)NC(=O)CNC(=O)[C@H](CC(C)C)NC(=O)[C@H](CCC(=O)O)NC(=O)[C@H](CC(=O)O)NC(=O)[C@H](CC(C)C)NC(=O)[C@H](CC(C)C)NC(=O)[C@H](CCCNC(=N)N)NC(=O)[C@H](CCSC)NC(=O)[C@@H](NC(=O)[C@H](CCC(=O)O)NC(=O)[C@H](Cc1ccc(O)cc1)NC(=O)[C@@H](NC(=O)[C@H](CCCCN)NC(=O)[C@H](CCC(N)=O)NC(=O)[C@H](CC(C)C)NC(=O)[C@@H](NC(=O)[C@H](Cc1c[nH]c2ccccc12)NC(=O)[C@H](CCC(=O)O)NC(=O)[C@H](CCCCN)NC(=O)[C@@H](N)CC(=O)O)[C@@H](C)CC)[C@@H](C)CC)[C@@H](C)CC)C(C)C)C(=O)N[C@@H](Cc1ccc(O)cc1)C(=O)N[C@@H](CCC(=O)O)C(=O)N[C@@H](Cc1ccccc1)C(=O)N[C@@H](CCSC)C(=O)N[C@@H](CCCCN)C(=O)N[C@@H](CCCCN)C(=O)NCC(=O)N[C@@H](CC(=O)O)C(=O)N[C@H]1CSSC[C@@H](C(=O)N[C@H](C(=O)O)[C@@H](C)O)NC(=O)[C@H](Cc2c[nH]c3ccccc23)NC(=O)[C@H](C(C)C)NC(=O)[C@H](CC(C)C)NC(=O)[C@H](CCC(=O)O)NC(=O)CNC(=O)[C@H](CC(C)C)NC(=O)[C@H](Cc2c[nH]cn2)NC(=O)[C@H](Cc2c[nH]c3ccccc23)NC(=O)[C@H](C)NC1=O [Compound 113]
  EC50: 2.2 nM and 1.6 nM

## CC[C@H](C)[C@H](NC(=O)[C@H](CC(C)C)NC(=O)[C@H](CC(=O)O)NC(=O)[C@H](CO)NC(=O)[C@@H](NC(=O)[C@H](CCCNC(=N)N)NC(=O)[C@H](CCSC)NC(=O)[C@H](CO)NC(=O)[C@H](C)NC(=O)[C@H](CCC(=O)O)NC(=O)[C@H](C)NC(=O)[C@H](Cc1c[nH]cn1)NC(=O)CNC(=O)[C@H](CC(C)C)NC(=O)[C@H](CCC(=O)O)NC(=O)[C@H](CC(=O)O)NC(=O)[C@H](CC(C)C)NC(=O)[C@H](CC(C)C)NC(=O)[C@H](CCCNC(=N)N)NC(=O)[C@H](CCSC)NC(=O)[C@@H](NC(=O)[C@H](CCC(=O)O)NC(=O)[C@H](Cc1ccc(O)cc1)NC(=O)[C@@H](NC(=O)[C@H](CCCCN)NC(=O)[C@H](CCC(N)=O)NC(=O)[C@H](CC(C)C)NC(=O)[C@@H](NC(=O)[C@H](Cc1c[nH]c2ccccc12)NC(=O)[C@H](CCC(=O)O)NC(=O)[C@H](CCCCN)NC(=O)[C@H](CC(=O)O)NC(C)=O)[C@@H](C)CC)[C@@H](C)CC)[C@@H](C)CC)C(C)C)C(=O)N[C@@H](Cc1ccc(O)cc1)C(=O)N[C@@H](CCC(=O)O)C(=O)N[C@@H](Cc1ccccc1)C(=O)N[C@@H](CCSC)C(=O)N[C@@H](CCCCN)C(=O)N[C@@H](CCCCN)C(=O)N[C@@H](CC(=O)O)C(=O)N[C@H]1CSSC[C@@H](C(=O)N[C@H](C(=O)O)[C@@H](C)O)NC(=O)[C@H](Cc2c[nH]c3ccccc23)NC(=O)[C@H](C(C)C)NC(=O)[C@H](CC(C)C)NC(=O)[C@H](CCC(=O)O)NC(=O)CNC(=O)[C@H](CC(C)C)NC(=O)[C@H](Cc2c[nH]cn2)NC(=O)[C@H](Cc2c[nH]c3ccccc23)NC(=O)[C@H](C)NC1=O [Compound 114]
  EC50: 1.6 nM and 1.1 nM

## CC[C@H](C)[C@H](NC(=O)[C@H](CC(C)C)NC(=O)[C@H](CC(=O)O)NC(=O)[C@H](CO)NC(=O)[C@@H](NC(=O)[C@H](CCCNC(=N)N)NC(=O)[C@H](CCSC)NC(=O)[C@H](CO)NC(=O)[C@H](C)NC(=O)[C@H](CCC(=O)O)NC(=O)[C@H](C)NC(=O)[C@H](Cc1c[nH]cn1)NC(=O)CNC(=O)[C@H](CC(C)C)NC(=O)[C@H](CCC(=O)O)NC(=O)[C@H](CC(=O)O)NC(=O)[C@H](CC(C)C)NC(=O)[C@H](CC(C)C)NC(=O)[C@H](CCCNC(=N)N)NC(=O)[C@H](CCSC)NC(=O)[C@@H](NC(=O)[C@H](CCC(=O)O)NC(=O)[C@H](Cc1ccc(O)cc1)NC(=O)[C@@H](NC(=O)[C@H](CCCCN)NC(=O)[C@H](CCC(N)=O)NC(=O)[C@H](CC(C)C)NC(=O)[C@@H](NC(=O)[C@H](Cc1c[nH]c2ccccc12)NC(=O)[C@H](CCC(=O)O)NC(=O)[C@H](CCCCN)NC(=O)[C@@H](N)CC(=O)O)[C@@H](C)CC)[C@@H](C)CC)[C@@H](C)CC)C(C)C)C(=O)N[C@@H](Cc1ccc(O)cc1)C(=O)N[C@@H](CCC(=O)O)C(=O)N[C@@H](Cc1ccccc1)C(=O)N[C@@H](CCSC)C(=O)N[C@@H](CCCCN)C(=O)N[C@@H](CCCCN)C(=O)N[C@@H](CC(=O)O)C(=O)N[C@H]1CSSC[C@@H](C(=O)N[C@H](C(=O)O)[C@@H](C)O)NC(=O)[C@H](Cc2c[nH]c3ccccc23)NC(=O)[C@H](C(C)C)NC(=O)[C@H](CC(C)C)NC(=O)[C@H](CCC(=O)O)NC(=O)CNC(=O)[C@H](CC(C)C)NC(=O)[C@H](Cc2c[nH]cn2)NC(=O)[C@H](Cc2c[nH]c3ccccc23)NC(=O)[C@H](C)NC1=O [Compound 115]
  EC50: 1.4 nM and 1.3 nM

## CC[C@H](C)[C@H](NC(=O)[C@H](CC(C)C)NC(=O)[C@H](CC(=O)O)NC(=O)[C@H](CO)NC(=O)[C@@H](NC(=O)[C@H](CCCNC(=N)N)NC(=O)[C@H](CCSC)NC(=O)[C@H](CO)NC(=O)[C@H](C)NC(=O)[C@H](CCC(=O)O)NC(=O)[C@H](C)NC(=O)[C@H](Cc1c[nH]cn1)NC(=O)CNC(=O)[C@H](CC(C)C)NC(=O)[C@H](CCC(=O)O)NC(=O)[C@H](CC(=O)O)NC(=O)[C@H](CC(C)C)NC(=O)[C@H](CC(C)C)NC(=O)[C@H](CCCNC(=N)N)NC(=O)[C@H](CCSC)NC(=O)[C@@H](NC(=O)[C@H](CCC(=O)O)NC(=O)[C@H](Cc1ccc(O)cc1)NC(=O)[C@@H](NC(=O)[C@H](CCCCN)NC(=O)[C@H](CCC(N)=O)NC(=O)[C@H](CC(C)C)NC(=O)[C@@H](NC(=O)[C@H](Cc1c[nH]c2ccccc12)NC(=O)[C@H](CCC(=O)O)NC(=O)[C@H](CCCCN)NC(=O)[C@H](CC(=O)O)NC(=O)[C@@H](NC(=O)[C@@H]1CSSC[C@H](NC(=O)[C@H](CC(=O)O)NC(C)=O)C(=O)N[C@@H](C)C(=O)N[C@@H](Cc2c[nH]c3ccccc23)C(=O)N[C@@H](Cc2c[nH]cn2)C(=O)N[C@@H](CC(C)C)C(=O)NCC(=O)N[C@@H](CCC(=O)O)C(=O)N[C@@H](CC(C)C)C(=O)N[C@@H](C(C)C)C(=O)N[C@@H](Cc2c[nH]c3ccccc23)C(=O)N1)[C@@H](C)O)[C@@H](C)CC)[C@@H](C)CC)[C@@H](C)CC)C(C)C)C(=O)N[C@@H](Cc1ccc(O)cc1)C(=O)N[C@@H](CCC(=O)O)C(=O)N[C@@H](Cc1ccccc1)C(=O)N[C@@H](CCSC)C(=O)N[C@@H](CCCCN)C(=O)N[C@@H](CCCCN)C(=O)O [Compound 121]
  EC50: 3.7 nM and 3.3 nM

## CC[C@H](C)[C@H](NC(=O)[C@H](CC(C)C)NC(=O)[C@H](CC(=O)O)NC(=O)[C@H](CO)NC(=O)[C@@H](NC(=O)[C@H](CCCNC(=N)N)NC(=O)[C@H](CCSC)NC(=O)[C@H](CO)NC(=O)[C@H](C)NC(=O)[C@H](CCC(=O)O)NC(=O)[C@H](C)NC(=O)[C@H](Cc1c[nH]cn1)NC(=O)CNC(=O)[C@H](CC(C)C)NC(=O)[C@H](CCC(=O)O)NC(=O)[C@H](CC(=O)O)NC(=O)[C@H](CC(C)C)NC(=O)[C@H](CC(C)C)NC(=O)[C@H](CCCNC(=N)N)NC(=O)[C@H](CCSC)NC(=O)[C@@H](NC(=O)[C@H](CCC(=O)O)NC(=O)[C@H](Cc1ccc(O)cc1)NC(=O)[C@@H](NC(=O)[C@H](CCCCN)NC(=O)[C@H](CCC(N)=O)NC(=O)[C@H](CC(C)C)NC(=O)[C@@H](NC(=O)[C@H](Cc1c[nH]c2ccccc12)NC(=O)[C@H](CCC(=O)O)NC(=O)[C@H](CCCCN)NC(=O)[C@H](CC(=O)O)NC(C)=O)[C@@H](C)CC)[C@@H](C)CC)[C@@H](C)CC)C(C)C)C(=O)N[C@@H](Cc1ccc(O)cc1)C(=O)N[C@@H](CCC(=O)O)C(=O)N[C@@H](Cc1ccccc1)C(=O)N[C@@H](CCSC)C(=O)N[C@@H](CCCCN)C(=O)N[C@@H](CCCCN)C(=O)NCC(=O)NCCOCCOCCOCCOCCOCCOCCOCCOCCC(=O)N[C@@H](CC(=O)O)C(=O)N[C@H]1CSSC[C@@H](C(=O)N[C@H](C(N)=O)[C@@H](C)O)NC(=O)[C@H](Cc2c[nH]c3ccccc23)NC(=O)[C@H](C(C)C)NC(=O)[C@H](CC(C)C)NC(=O)[C@H](CCC(=O)O)NC(=O)CNC(=O)[C@H](CC(C)C)NC(=O)[C@H](Cc2c[nH]cn2)NC(=O)[C@H](Cc2c[nH]c3ccccc23)NC(=O)[C@H](C)NC1=O [Compound 148]
  EC50: 2.4 nM
